Assay results taken from PubChem BioAssay AID1345083 (National Center for Advancing Translational Sciences (NCATS), 2018).
Out of some 94,000 compounds screened, about 6,200 (6.6%) were called active. The shares of active, inactive and inconclusive entries below differ from those in the screen. Calls come from the whole dose curve; as a rule, active = well fitted inhibition curve with a large enough effect; inconclusive = small, poorly fitted or top-dose-only effect; inactive = flat fitted curve, though single readings scatter. Potencies of inconclusive entries are doubtful fits and often do not repeat.

Test: Cytotoxic Profiling in HEK 293 Cell Line of Diverse Libraries Using Quantitative High-Throughput Screening; note: nearly all actives have a fitted effect of over 60% in size
Conditions: HEK 293 viability, ATP luminescence (CellTiter-Glo), 48-72 h; series mostly up to 115 µM
Outline: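 Viability of HEK 293 cells, plated at 250 cells/well, was judged by cellular ATP after compound treatment for 48 or 72 hr. Luminescence was imaged 10 min after CellTiter-Glo addition at room temperature.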
Potency is the fitted concentration of half-maximal effect; tags give direction and shape of the fitted curve.

Compound | Potency
COCC(=O)NC1CCCN(Cc2cccc(-c3ccc(C)c(Cl)c3)c2)C1 (stereo not given) | inconclusive: 39.8 µM [inhibitor, partial curve, poor fit]
CN(Cc1ccc2nsnc2c1)C(=O)c1ccc(CCC(C)(C)O)cc1 | inconclusive: 56.2 µM [inhibitor, partial curve, poor fit]
O=C(Nc1cccc(Br)c1)c1cnc(-c2ccccc2)nc1-c1ccncc1 | active: 39.8 µM
O=C(O)Cn1ccc2cc(OCCc3cccc(-c4ccc(F)cc4F)c3)cnc21 | inconclusive: 112 µM [inhibitor, partial curve, poor fit]
CC(C)n1c(CNC(=O)Cn2nc3c(cc2=O)CCCC3)nc2ccccc21 | inconclusive: 89.1 µM [inhibitor, single point]
COc1cc(C)sc1C(=O)NC1CC(c2cc(=O)[nH]c(C3CC3)n2)C1 (stereo not given) | inactive
CCn1nccc1C(=O)N1CCC(CCOC)(NC(=O)c2ccccc2)CC1 | inactive
Cn1cccc1CN1CCCC2(CC(Cc3ccccc3)=NO2)C1 (stereo not given) | inconclusive: 56.2 µM [inhibitor, partial curve, poor fit]
Cc1ccc(CC(=O)N2CCCN(S(C)(=O)=O)c3ccccc32)cc1 | inactive
CC1=NS(=O)(=O)N(Cc2ccccc2)C=C1C(=O)OCc1nc(-c2ccccc2Cl)no1 | inconclusive: 20 µM [inhibitor, full curve]
Cc1cccc(CN2CCC3(CC2)Cc2ccccc2CNC3=O)n1 | inactive
CN(C)CCCOCC1(C)COc2ccc(C(=O)Nc3ccccc3)cc2N1 (stereo not given) | inconclusive: 126 µM [inhibitor, single point]
Cc1cc(CNC(=O)[C@@H]2CCC[C@@H](N(C)C)CN(C)C(=O)C2)no1 | inactive
CN(Cc1ccc2nonc2c1)C(=O)COc1ccc(Cl)cc1Cl | inconclusive: 50.1 µM [inhibitor, partial curve, poor fit]
COc1ccc(CC(=O)N2CCN(c3ccnc4ccnn34)CC2)cc1 | inconclusive: 70.8 µM [inhibitor, partial curve, poor fit]
COc1ccccc1-c1cnc(Nc2ccncc2)c2c1CCO2 | active: 63.1 µM
CCN(C(=O)CCC(=O)N1CCC(CCOc2ccccc2F)C1)c1ccccc1 (stereo not given) | inconclusive: 50.1 µM [inhibitor, partial curve, poor fit]
Cn1ccc2c(C(=O)NCc3cccnc3)nc(-c3cccc(N4CCOCC4)c3)cc21 | inconclusive: 100 µM [inhibitor, partial curve]
CC(C)c1ccc(C(=O)N2CC[C@H](N(C)C)[C@H](CCC(=O)O)C2)c(=O)[nH]1 | inconclusive: 63.1 µM [inhibitor, partial curve, poor fit]
Cc1noc2c(Nc3ccc(N4CCOCC4)cc3)cc(-c3cccs3)nc12 | inconclusive: 35.5 µM [inhibitor, full curve]
O=C(c1cccs1)N1CCC2(CC1)N=C(c1cccc(Br)c1)NO2 | inconclusive: 89.1 µM [inhibitor, single point]
COc1ccc(-c2noc(NCCN(C)C3CCCCC3)n2)cc1 | inconclusive: 89.1 µM [inhibitor, single point]
COC(=O)CC(=O)N1CCC(C(=O)N2CCC(N3Cc4cccn4C3=O)CC2)CC1 | inactive

Compound | Potency
COCCOC1CCOC2(CCN(S(=O)(=O)c3c(C)noc3C)CC2)C1 (stereo not given) | inactive
CCOc1ccc(CN2CCN(CC(N)=O)CC2CCO)cc1 (stereo not given) | inactive
O=[S+]([O-])(c1ccccc1)N1CCN(Cc2ccccc2-c2cccnc2)CC1 | active: 35.5 µM
Cc1cc(C)c(S(=O)(=O)N2CCn3c(nn(CC4CC4)c3=O)C2)cc1C | inconclusive: 50.1 µM [inhibitor, partial curve, poor fit]
O=C(N1CCCN(c2cc(-c3ccc(Cl)cc3)[nH]n2)CC1)C1(c2ccccc2)CC1 | active: 39.8 µM
O=C(Cc1ccccc1)Nc1cc(-c2cccnc2)nn1-c1ccccc1 | inconclusive: 50.1 µM [inhibitor, partial curve, poor fit]
CCN1CCN(C(=O)c2cc(-c3ccc(Cl)cc3Cl)c3nncn3n2)CC1 | inactive
Cc1ccn(CCC(=O)N[C@@H]2COCC[C@@H]2Oc2cccc(F)c2)n1 | inactive
CCc1noc(-c2cn(C3CCN(C(=O)Cc4ccc(C)cc4)CC3)nn2)n1 | inactive
COc1ccc(Cl)cc1-c1ncc2c(n1)OCCN(c1ccccc1)C2=O | inactive
N#Cc1cccc(-c2cn3c(n2)N(C(=O)c2cnccn2)CCC3)c1 | inconclusive: 50.1 µM [inhibitor, partial curve, poor fit]
O=C(Cn1nc2c(cc1=O)CCCC2)NCC1CCCO1 (stereo not given) | inconclusive: 100 µM [inhibitor, single point]
CN1CCN(C(=O)C2(N(C)CCc3ccccc3)Cc3ccccc3C2)CC1 | inconclusive: 50.1 µM [inhibitor, partial curve, poor fit]
COC[C@@H]1CN(C(=O)c2cnccn2)C[C@H]1c1ccccn1 | inactive
CCOc1cc2c(cn1)NCCN(Cc1ccccc1O)C2 | inconclusive: 112 µM [inhibitor, partial curve, poor fit]
O=C(c1ccccc1)N1CCCN(c2cc(-c3ccc(Cl)cc3)[nH]n2)CC1 | inconclusive: 50.1 µM [inhibitor, partial curve, poor fit]
CCCn1cnnc1CNC(=O)C1(Oc2ccc(Cl)cc2)CCNCC1 | inactive
CCN(Cc1ccccn1)C(=O)c1csc2nc(-c3cc(C)ccc3C)cn12 | inconclusive: 50.1 µM [inhibitor, partial curve, poor fit]
Cc1cc(CNC(=O)C2CC(=O)N(C(C)(C)C)C2)n(C)n1 (stereo not given) | inactive
CCn1ccc(C(=O)N2CCC(N3C[C@H](O)C[C@H]3C(=O)NCCOC)CC2)n1 | inactive
COc1ccc(C2Cn3nnc(C(=O)NC4CCCCCC4)c3CO2)cc1 (stereo not given) | inconclusive: 56.2 µM [inhibitor, partial curve, poor fit]
CN(Cc1ccccc1)Cc1cn([C@H]2CO[C@H]3[C@@H]2OC[C@@H]3NCc2ccccc2)nn1 | inconclusive: 126 µM [inhibitor, partial curve, poor fit]
